Experimental data as given in publication PMC6952393.
Results are given in words; binding and its absence hold for the method and conditions named. Binding seen in cells or lysates may run through a third protein. Some binding calls cover weakened binding; strength is not graded here.

Sequences of proteins named here, by UniProt entry; tags and fusion partners are left off. A change or cut given only in a name is not applied to a line headed by its entry.
UniProt O43242: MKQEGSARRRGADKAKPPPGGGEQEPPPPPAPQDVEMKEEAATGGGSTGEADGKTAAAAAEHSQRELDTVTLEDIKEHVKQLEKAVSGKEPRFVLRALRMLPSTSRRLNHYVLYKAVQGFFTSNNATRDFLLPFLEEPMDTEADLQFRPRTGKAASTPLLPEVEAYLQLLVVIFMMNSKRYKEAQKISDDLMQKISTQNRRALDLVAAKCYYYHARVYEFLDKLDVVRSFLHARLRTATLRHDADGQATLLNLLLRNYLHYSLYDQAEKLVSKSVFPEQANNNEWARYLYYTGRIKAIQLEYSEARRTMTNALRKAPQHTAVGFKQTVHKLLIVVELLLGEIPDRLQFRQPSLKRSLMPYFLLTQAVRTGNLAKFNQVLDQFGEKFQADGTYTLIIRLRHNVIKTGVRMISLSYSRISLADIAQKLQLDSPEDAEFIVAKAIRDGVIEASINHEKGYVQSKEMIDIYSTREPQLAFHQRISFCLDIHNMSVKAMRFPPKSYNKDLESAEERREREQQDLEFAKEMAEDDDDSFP
UniProt O75340: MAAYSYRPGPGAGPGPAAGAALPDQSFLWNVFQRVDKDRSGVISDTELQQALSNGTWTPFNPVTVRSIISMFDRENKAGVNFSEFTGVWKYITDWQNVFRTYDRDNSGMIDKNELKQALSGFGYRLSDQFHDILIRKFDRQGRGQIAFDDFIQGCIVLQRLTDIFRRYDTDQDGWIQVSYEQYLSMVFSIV

Tests used:
His-tagged Rpn3 (human) = His-tagged Rpn3 (human) (UniProt O43242); experiment: pull-down; His-tag pull-down; E. coli cells with His-Rpn3 and GST-ALG-2 mixed in binding buffer (50 mM Tris-HCl, 500 mM NaCl, pH 8.0), lysed, Ni Sepharose beads, washed with 20 mM imidazole; SDS-PAGE, coomassie blue
GFP-Rpn3 (human) [1] = molecular target: GFP-Rpn3 (human) (UniProt O43242); experiment: co-IP; HEK293T co-transfected with GFP-Rpn3 and HA-ALG-2 for 48 h, RIPA lysate, GFP-Trap beads overnight at 4 °C, western blot
GFP-Rpn3 (human) [2] = molecular target: GFP-Rpn3 (human) (UniProt O43242); experiment: co-IP; HEK293T transfected with HA-ALG-2 mutants and eGFP-Rpn3, RIPA lysate; beads of this panel (GFP-Trap or HA antibody) not told
HA-Rpn3 (human) = HA-Rpn3 (human) (UniProt O43242); experiment: co-IP; HEK293T transfected with HA-Rpn3 or HA-ALG-2 for 48 h, RIPA lysate, HA tag antibody and protein A resin overnight at 4 °C; endogenous partner detected by western blot
HA-ALG-2 (human) = HA-ALG-2 (human) (UniProt O75340); experiment: as above

“GST-tagged ALG-2 (from UniProt O75340 1-191)” was tested, and the binding (His-tagged Rpn3 (human)) was “binds”.
HA-ALG-2 (from UniProt O75340 1-191) was tested, and the binding (GFP-Rpn3 (human) [1]) was “binds”.
In the case of “HA-ALG-2 D169A (from UniProt O75340 1-191)”, the binding (GFP-Rpn3 (human) [2]) is reported as “no binding”.
With “HA-ALG-2 E47D (from UniProt O75340 1-191)” the binding (GFP-Rpn3 (human) [2]) was “no binding”.
In the case of “HA-ALG-2 E114D (from UniProt O75340 1-191)”, the binding (GFP-Rpn3 (human) [2]) is reported as “no binding”.
In the case of “endogenous ALG-2 (HEK293T) (from UniProt O75340 1-191)”, the binding (HA-Rpn3 (human)) is reported as “binds”.
With “endogenous Rpn3 (HEK293T) (from UniProt O43242 1-534)” the binding (HA-ALG-2 (human)) was “binds”.
